The labels stand for the following.
B1: BCL11A, Q9H165 (protein)
chain: MSRRKQGKPQHLSKREFSPEPLEAILTDDEPDHGPLGAPEGDHDLLTCGQCQMNFPLGDILIFIEHKRKQCNGSLCLEKAVDKPPSPSPIEMKKASNPVEVGIQVTPEDDDCLSTSSRGICPKQEHIADKLLHWRGLSSPRSAHGALIPTPGMSAEYAPQGICKDEPSSYTCTTCKQPFTSAWFLLQHAQNTHGLRIYLESEHGSPLTPRVGIPSGLGAECPSQPPLHGIHIADNNPFNLLRIPGSVSREASGLAEGRFPPTPPLFSPPPRHHLDPHRIERLGAEEMALATHHPSAFDRVLRLNPMAMEPPAMDFSRRLRELAGNTSSPPLSPGRPSPMQRLLQPFQPGSKPPFLATPPLPPLQSAPPPSQPPVKSKSCEFCGKTFKFQSNLVVHRRSHTGEKPYKCNLCDHACTQASKLKRHMKTHMHKSSPMTVKSDDGLSTASSPEPGTSDLVGSASSALKSVVAKFKSENDPNLIPENGDEEEEEDDEEEEEEEEEEEEELTESERVDYGFGLSLEAARHHENSSRGAVVGVGDESRALPDVMQGMVLSSMQHFSEAFHQVLGEKHKRGHLAEAEGHRDTCDEDSVAGESDRIDDGTVNGRGCSPGESASGGLSKKLLLGSPSSLSPFSKRIKLEKEFDLPPAAMPNTENVYSQWLAGYAASRQLKDPFLSFGDSRQSPFASSSEHSSENGSLRFSTPPGELDGGISGRSGTGSGGSTPHISGPGPGRPSSKEGRRSDTCEYCGKVFKNCSNLTVHRRSHTGERPYKCELCNYACAQSSKLTRHMKTHGQVGKDVYKCEICKMPFSVYSTLEKHMKKWHSDRVLNNDIKTE
B2: HAND1, O96004 (protein)
chain: MNLVGSYAHHHHHHHPHPAHPMLHEPFLFGPASRCHQERPYFQSWLLSPADAAPDFPAGGPPPAAAAAATAYGPDARPGQSPGRLEALGGRLGRRKGSGPKKERRRTESINSAFAELRECIPNVPADTKLSKIKTLRLATSYIAYLMDVLAKDAQSGDPEAFKAELKKADGGRESKRKRELQQHEGFPPALGPVEKRIKGRTGWPQQVWALELNQ
B3: PEG3, Q9GZU2 (protein)
chain: MLPPKHLSATKPKKSWAPNLYELDSDLTKEPDVIIGEGPTDSEFFHQRFRNLIYVEFVGPRKTLIKLRNLCLDWLQPETRTKEEIIELLVLEQYLTIIPEKLKPWVRAKKPENCEKLVTLLENYKEMYQPEDDNNSDVTSDDDMTRNRRESSPPHSVHSFSDRDWDRRGRSRDMEPRDRWSHTRNPRSRMPPRDLSLPVVAKTSFEMDREDDRDSRAYESRSQDAESYQNVVDLAEDRKPHNTIQDNMENYRKLLSLVQLAEDDGHSHMTQGHSSRSKRSAYPSTSRGLKTMPEAKKSTHRRGICEDESSHGVIMEKFIKDVSRSSKSGRARESSDRSQRFPRMSDDNWKDISLNKRESVIQQRVYEGNAFRGGFRFNSTLVSRKRVLERKRRYHFDTDGKGSIHDQKGCPRKKPFECGSEMRKAMSVSSLSSLSSPSFTESQPIDFGAMPYVCDECGRSFSVISEFVEHQIMHTRENLYEYGESFIHSVAVSEVQKSQVGGKRFECKDCGETFNKSAALAEHRKIHARGYLVECKNQECEEAFMPSPTFSELQKIYGKDKFYECRVCKETFLHSSALIEHQKIHFGDDKDNEREHERERERERGETFRPSPALNEFQKMYGKEKMYECKVCGETFLHSSSLKEHQKIHTRGNPFENKGKVCEETFIPGQSLKRRQKTYNKEKLCDFTDGRDAFMQSSELSEHQKIHSRKNLFEGRGYEKSVIHSGPFTESQKSHTITRPLESDEDEKAFTISSNPYENQKIPTKENVYEAKSYERSVIHSLASVEAQKSHSVAGPSKPKVMAESTIQSFDAINHQRVRAGGNTSEGREYSRSVIHSLVASKPPRSHNGNELVESNEKGESSIYISDLNDKRQKIPARENPCEGGSKNRNYEDSVIQSVFRAKPQKSVPGEGSGEFKKDGEFSVPSSNVREYQKARAKKKYIEHRSNETSVIHSLPFGEQTFRPRGMLYECQECGECFAHSSDLTEHQKIHDREKPSGSRNYEWSVIRSLAPTDPQTSYAQEQYAKEQARNKCKDFRQFFATSEDLNTNQKIYDQEKSHGEESQGENTDGEETHSEETHGQETIEDPVIQGSDMEDPQKDDPDDKIYECEDCGLGFVDLTDLTDHQKVHSRKCLVDSREYTHSVIHTHSISEYQRDYTGEQLYECPKCGESFIHSSFLFEHQRIHEQDQLYSMKGCDDGFIALLPMKPRRNRAAERNPALAGSAIRCLLCGQGFIHSSALNEHMRLHREDDLLEQSQMAEEAIIPGLALTEFQRSQTEERLFECAVCGESFVNPAELADHVTVHKNEPYEYGSSYTHTSFLTEPLKGAIPFYECKDCGKSFIHSTVLTKHKELHLEEEEEDEAAAAAAAAAQEVEANVHVPQVVLRIQGLNVEAAEPEVEAAEPEVEAAEPEVEAAEPNGEAEGPDGEAAEPIGEAGQPNGEAEQPNGDADEPDGAGIEDPEERAEEPEGKAEEPEGDADEPDGVGIEDPEEGEDQEIQVEEPYYDCHECTETFTSSTAFSEHLKTHASMIIFEPANAFGECSGYIERASTSTGGANQADEKYFKCDVCGQLFNDRLSLARHQNTHTG
B4: NR4A3, Q92570 (protein)
chain: MPCVQAQYSPSPPGSSYAAQTYSSEYTTEIMNPDYTKLTMDLGSTEITATATTSLPSISTFVEGYSSNYELKPSCVYQMQRPLIKVEEGRAPSYHHHHHHHHHHHHHHQQQHQQPSIPPASSPEDEVLPSTSMYFKQSPPSTPTTPAFPPQAGALWDEALPSAPGCIAPGPLLDPPMKAVPTVAGARFPLFHFKPSPPHPPAPSPAGGHHLGYDPTAAAALSLPLGAAAAAGSQAAALESHPYGLPLAKRAAPLAFPPLGLTPSPTASSLLGESPSLPSPPSRSSSSGEGTCAVCGDNAACQHYGVRTCEGCKGFFKRTVQKNAKYVCLANKNCPVDKRRRNRCQYCRFQKCLSVGMVKEVVRTDSLKGRRGRLPSKPKSPLQQEPSQPSPPSPPICMMNALVRALTDSTPRDLDYSRYCPTDQAAAGTDAEHVQQFYNLLTASIDVSRSWAEKIPGFTDLPKEDQTLLIESAFLELFVLRLSIRSNTAEDKFVFCNGLVLHRLQCLRGFGEWLDSIKDFSLNLQSLNLDIQALACLSALSMITERHGLKEPKRVEELCNKITSSLKDHQSKGQALEPTESKVLGALVELRKICTLGLQRIFYLKLEDLVSPPSIIDKLFLDTLPF
B5: ZNF586, Q9NXT0 (protein)
chain: MAAAAALRAPAQSSVTFEDVAVNFSLEEWSLLNEAQRCLYRDVMLETLTLISSLGCWHGGEDEAAPSKQSTCIHIYKDQGGHSGERPYECGEYRKLFKNKSCLTEPRRDHKHRNVRTGERPYECSKYGKLFHQKPTLHIHERFHTGQKTYECSECGKSFHQSSSLLQRQTLHTRERPYECIECGKAFAEKSSLINHRKVHSGAKRYECNECGKSFAYTSSLIKHRRIHTGERPYECSECGRSFAENSSLIKHLRVHTGERPYECVECGKSFRRSSSLLQHQRVHTRERPYECSECGKSFSLRSNLIHHQRVHTGERHECGQCGKSFSRKSSLIIHLRVHTGERPYECSDCGKSFAENSSLIKHLRVHTGERPYECIDCGKSFRHSSSFRRHQRVHTGMRPYK
B6: ZNF217, O75362 (protein)
chain: MQSKVTGNMPTQSLLMYMDGPEVIGSSLGSPMEMEDALSMKGTAVVPFRATQEKNVIQIEGYMPLDCMFCSQTFTHSEDLNKHVLMQHRPTLCEPAVLRVEAEYLSPLDKSQVRTEPPKEKNCKENEFSCEVCGQTFRVAFDVEIHMRTHKDSFTYGCNMCGRRFKEPWFLKNHMRTHNGKSGARSKLQQGLESSPATINEVVQVHAAESISSPYKICMVCGFLFPNKESLIEHRKVHTKKTAFGTSSAQTDSPQGGMPSSREDFLQLFNLRPKSHPETGKKPVRCIPQLDPFTTFQAWQLATKGKVAICQEVKESGQEGSTDNDDSSSEKELGETNKGSCAGLSQEKEKCKHSHGEAPSVDADPKLPSSKEKPTHCSECGKAFRTYHQLVLHSRVHKKDRRAGAESPTMSVDGRQPGTCSPDLAAPLDENGAVDRGEGGSEDGSEDGLPEGIHLDKNDDGGKIKHLTSSRECSYCGKFFRSNYYLNIHLRTHTGEKPYKCEFCEYAAAQKTSLRYHLERHHKEKQTDVAAEVKNDGKNQDTEDALLTADSAQTKNLKRFFDGAKDVTGSPPAKQLKEMPSVFQNVLGSAVLSPAHKDTQDFHKNAADDSADKVNKNPTPAYLDLLKKRSAVETQANNLICRTKADVTPPPDGSTTHNLEVSPKEKQTETAADCRYRPSVDCHEKPLNLSVGALHNCPAISLSKSLIPSITCPFCTFKTFYPEVLMMHQRLEHKYNPDVHKNCRNKSLLRSRRTGCPPALLGKDVPPLSSFCKPKPKSAFPAQSKSLPSAKGKQSPPGPGKAPLTSGIDSSTLAPSNLKSHRPQQNVGVQGAATRQQQSEMFPKTSVSPAPDKTKRPETKLKPLPVAPSQPTLGSSNINGSIDYPAKNDSPWAPPGRDYFCNRSASNTAAEFGEPLPKRLKSSVVALDVDQPGANYRRGYDLPKYHMVRGITSLLPQDCVYPSQALPPKPRFLSSSEVDSPNVLTVQKPYGGSGPLYTCVPAGSPASSSTLEGKRPVSYQHLSNSMAQKRNYENFIGNAHYRPNDKKT
B7: MEF2A, Q02078 (protein)
chain: MGRKKIQITRIMDERNRQVTFTKRKFGLMKKAYELSVLCDCEIALIIFNSSNKLFQYASTDMDKVLLKYTEYNEPHESRTNSDIVEALNKKEHRGCDSPDPDTSYVLTPHTEEKYKKINEEFDNMMRNHKIAPGLPPQNFSMSVTVPVTSPNALSYTNPGSSLVSPSLAASSTLTDSSMLSPPQTTLHRNVSPGAPQRPPSTGNAGGMLSTTDLTVPNGAGSSPVGNGFVNSRASPNLIGATGANSLGKVMPTKSPPPPGGGNLGMNSRKPDLRVVIPPSSKGMMPPLSEEEELELNTQRISSSQATQPLATPVVSVTTPSLPPQGLVYSAMPTAYNTDYSLTSADLSALQGFNSPGMLSLGQVSAWQQHHLGQAALSSLVAGGQLSQGSNLSINTNQNISIKSEPISPPRDRMTPSGFQQQQQQQQQQQPPPPPQPQPQPPQPQPRQEMGRSPVDSLSSSSSSYDGSDREDPRGDFHSPIVLGRPPNTEDRESPSVKRMRMDAWVT

The list shows a part of the results. Binding of human transcription factors and regulators to the viral nucleoprotein by AlphaScreen, crude cell-free proteins, amounts not normalised, one pass. Fold of the Venus control; higher = more signal. No active / inactive call. Single-pass screen; sequences are the whole Swiss-Prot entries looked up by name.

In this experiment the target is nucleoprotein N of Crimean-Congo hemorrhagic fever virus. Description: AlphaScreen luminescence signal relative to Venus negative control (fold); higher = stronger binding to CCHFV N. Here is the method: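 AlphaScreen binding of cell-free made, FLAG-GST-tagged human transcription factors and regulators (crude translation products) to biotinylated N protein; signal as fold of the FLAG-GST-Venus control. One pass.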
Molecule B1 returned an AlphaScreen luminescence signal of 3.07. In turn, B2 showed an AlphaScreen luminescence signal of 2.79.

B3: the AlphaScreen luminescence signal was found to be 1.72. Molecule B4 returned an AlphaScreen luminescence signal of 7.3. With B5 the figure was 2; with B6, 2.47.

Turning to B7, the AlphaScreen luminescence signal was 2.

The record behind these values is the supplement of paper PMC12423691.
